Assay results from PubChem BioAssay AID686979 (National Center for Advancing Translational Sciences (NCATS), 2013).
Values joined by “and” are separate entries in the source; they are usually repeats but may differ in a detail not shown here. Equal values may be shown once. Screen size: about 420,000 compounds; about 50,000 (12%) were called active. The shares of active, inactive and inconclusive entries below differ from those in the screen. The call rests on the fitted dose curve; in most records, active means well fitted inhibition curve with a large enough effect; inconclusive means small, poorly fitted or top-dose-only effect; inactive means flat fitted curve, though single readings scatter. Potencies beside an inconclusive call are fits to weak or partial responses and may not hold up.
On the % scale 0 is the no-effect control and ±100 the full control effect; potency means the concentration at half of the fitted maximal effect; tags describe the fitted curve by direction and shape.

Experiment: qHTS for Inhibitors of human tyrosyl-DNA phosphodiesterase 1 (TDP1): qHTS in cells in presence of CPT; further: nearly all actives have a fitted effect of over 55% in size
Details: chicken DT40 Tdp1-/-;hTDP1 cells + 20 nM CPT, ATP luminescence, 48 h; activity change, negative = growth inhibition: at 46.2 µM (top of the series) unless noted
Procedure, shortened: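 Chicken DT40 Tdp1-/- cells complemented with human TDP1, 400 cells/well, exposed to compounds plus 20 nM camptothecin for at least 48 h at 37 C; viability read as ATP content by CellTiter-Glo luminescence.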
In the case of `Cc1cc(C(O)c2ncc(-c3ccc(Oc4ccccc4)cc3)[nH]2)ccc1F` (stereo not given), the Potency is reported as active: 18.4 µM.
In the case of `Cc1cc(C)cc(NC(=O)N2CCC(CN3CCCCCC3)CC2)c1`, the “activity change, negative = growth inhibition” value is reported as inactive: -50.2%.
In the case of `CC1CCC(CN2C(Nc3ccccc3)=NC[C@@H]2Cc2ccccc2)CC1` (stereo not given in full), the Potency is reported as inconclusive: 16.4 µM [inhibitor, single point].
For `CN1CCN(c2ncnc3c2c(-c2ccccc2)cn3-c2ccc(F)cc2)CC1`, the Potency was active: 18.4 µM.
For `COc1cc(NC(=O)COc2ccccc2Cl)ccc1NC(=O)c1cccs1`, the “activity change, negative = growth inhibition” value was inactive: -2.77%.
In the case of `Cc1cc(C)cc(N(CCC#N)C(=O)COC(=O)C2CCN(c3ccc(C(F)(F)F)cn3)CC2)c1`, the Potency is reported as inconclusive: 18.4 µM [inhibitor, single point].
With `Cn1cc(C(=O)N/N=C/C(Br)=C/c2ccccc2)ccc1=O` the Potency was active: 3.26 µM.
For `CCOC(=O)c1nn(-c2cccc(C)c2)c2nnc(Cc3ccc(C)cc3)c(=O)n12`, the “activity change, negative = growth inhibition” value was inactive: -1.12%.
With `O=C(Cc1ccc(S(=O)(=O)N2CCOCC2)s1)Nc1ccc2c(c1)CCC2` the “activity change, negative = growth inhibition” value was inactive: -20.3%.
For `COc1ccc(Cn2c(C)c(C)c(C#N)c2NC(=O)Nc2ccccc2)cc1`, the Potency was inconclusive: 20.6 µM [inhibitor, single point].
With `O=C1NCCC12C(=O)Nc1ccccc12` (stereo not given) the “activity change, negative = growth inhibition” value was inactive: 4.15%.
With `O=C(NCCCn1ccnc1)c1cc2nc(-c3ccc(Br)cc3)cc(C(F)(F)F)n2n1` the Potency was inconclusive: 29.1 µM [inhibitor, single point].
For `CC(C)C[C@@H](CSc1ccccc1)N1CCN(CCc2ccccc2)CCC1=O`, the Potency was inconclusive: 22.4 µM [inhibitor, single point] and inconclusive: 20.6 µM [inhibitor, single point].
In the case of `COc1cccc(NC(=O)CN(C)C(=O)c2cccc(S(=O)(=O)N3c4ccccc4CC3C)c2)c1` (stereo not given), the Potency is reported as inconclusive: 29.1 µM [inhibitor, single point].
With `O=S(=O)(c1ccc(N2CCOCC2)c(Cl)c1)N1CCOCC1` the Potency was inconclusive: 25.9 µM [inhibitor, single point].
For `Cc1ccc(S(=O)(=O)N2CCN(C(=O)[C@H](Cc3ccccc3)NC(=O)c3ccco3)CC2)cc1`, the Potency was inconclusive: 18.4 µM [inhibitor, single point].
For `COc1ccc(CN2C3CCCC2CC(NC(=O)c2cccc(F)c2)C3)cc1` (stereo not given), the “activity change, negative = growth inhibition” value was inactive: -14.7%.
For `COC(=O)c1c(NC(=O)/C(C#N)=C/c2ccc(OC)cc2)sc2c1CCC2`, the “activity change, negative = growth inhibition” value was inactive: 7.73%.
For `O=C1CN(/N=C/c2ccc([N+](=O)[O-])o2)C(=O)N1`, the Potency was active: 20.6 µM.
In the case of `C=CCn1c(NC(=O)c2ccc(Br)o2)c(C(=O)OCC)sc1=S`, the Potency is reported as inconclusive: 29.1 µM [inhibitor, single point].
